Results taken from PubChem BioAssay AID1671193 (National Center for Advancing Translational Sciences (NCATS), 2021).
Values joined by “and” are separate entries in the source; they are usually repeats but may differ in a detail not shown here. Identical values can stand only once. In all, about 150,000 compounds went through this assay and about 180 (0.12%) were called active. Inconclusive means that the source gave no clear call. Such entries were picked first, then a sample of the others. The call rests on the fitted dose curve; in most records, active means well fitted cell-killing curve with a large enough effect; inconclusive means small, poorly fitted or top-dose-only effect, or effect the other way; inactive means flat fitted curve, though single readings scatter. Potencies of inconclusive entries are doubtful fits and often do not repeat.

Experiment: GF-AFC viability counterscreen for inhibitors of alpha-synuclein gene (SNCA) expression; further: nearly all actives have a fitted effect of over 30% in size;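 on activity change, negative = cytotoxicity: 0% = DMSO-treated cells and -100% = medium-only wells without cells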
Details: HEK-293-SNCA-luc viability, GF-AFC fluorescence, 24 h; activity change, negative = cytotoxicity: at 57.1 µM (top of the series) unless noted
How it was run: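 Cytotoxicity counterscreen: after 24 h compound treatment of genome-edited SNCA-luciferase HEK-293 cells, live-cell protease substrate GF-AFC read by fluorescence after 30 min; activity scaled between DMSO (0%) and medium-only (-100%), curves Hill-fitted.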
Potency means the concentration at half of the fitted maximal effect; tags describe the fitted curve by direction and shape.

Compound | Potency | activity change, negative = cytotoxicity
O=C(NCc1nnc2cc(-c3nc(C4CC4)no3)ccn12)c1ccc2[nH]ccc2c1 | inconclusive: 22.4 µM [cytotoxic, partial curve, poor fit] | 
COc1ccc(CNC(=O)N2CCC(Cc3ncc(C)n3C3CC3)C2)cc1 (stereo not drawn) | inactive | 
CN(C)Cc1nnc(C2CC(NC(=O)c3ccc4scnc4c3)C2)n1C (stereo not drawn) | inconclusive: 3.16 µM [cytotoxic, partial curve, poor fit] | 
Cc1ccc(CN2CCC(N3CCCNC3=O)CC2)cc1 | inactive | 
Cn1ccc2c(C(=O)NCCC(N)=O)nc(-c3ccccc3C(F)(F)F)cc21 | inactive | 
COC(=O)CNC(=O)c1nc(-c2c(C)cccc2C)c2ccccn12 | inactive | 
COc1ccc(C2(CNC(=O)C(=O)Nc3cccc(C(F)(F)F)c3)CCCC2)cc1OC | inactive | 
CN1c2cc(C(=O)NCc3cccs3)ccc2C(=O)N2CCCCC21 (stereo not drawn) | inconclusive: 3.98 µM [rising, single point] | 
CC(c1cccc(-c2nc3c(cc2C(N)=O)CCC3)c1)N1CCCC1 (stereo not drawn) | inactive | 
CCC(=O)Nc1ccccc1-c1nc2ccccc2n(C(C)C(=O)Nc2ccc(OC)cc2)c1=O (stereo not drawn) | inconclusive: 10 µM [cytotoxic, partial curve, poor fit] | 
CCc1ccc(CN2CCN(c3ccc(C(N)=O)cn3)CC2)nc1 | inconclusive: 25.1 µM [cytotoxic, single point] | 
CN1CC2(CCN(Cc3ccccn3)CC2)CC1C(=O)N1CCOCC1 (stereo not drawn) | inactive | 
CCNc1ncc2nc(-c3cn(C)c4ccccc34)c(=O)n(C)c2n1 | inconclusive: 15.8 µM [rising, partial curve, poor fit] | 
COc1ccc(CNc2nc(-c3c(C)noc3C)nc3ccccc23)c(OC)c1 | inactive | 
O=C1N[C@@H]2CCN(C(=O)c3ccc(C(F)(F)F)cc3)[C@@H]2C(=O)N1c1ccc(Oc2ccccc2)cc1 | inactive | 
COc1ccc(CN2C(=O)[C@@H]3C[C@@H](O)CN3C3(CN(C(C)C)C3)C2=O)cc1 | inactive | 
Cc1cc(-c2ccc(S(=O)(=O)NCc3ccccc3Cl)s2)on1 | inconclusive: 7.94 µM [rising, single point] | 
O=C(Cn1ncc2ccccc2c1=O)N1CCCC(Cc2nc3ccccc3[nH]2)C1 (stereo not drawn) | inconclusive: 2.82 µM [cytotoxic, full curve, poor fit] | 
COc1ccc(C(=O)N2CCc3ccc(C(=O)NCc4ccccc4C)cc32)cc1 | inconclusive: 2.51 µM [cytotoxic, full curve] | 
COCc1nc2nc(-c3ccccc3)c(-c3ccc([S+](C)(=O)[O-])cc3)cc2n1C | inactive | 
CCCCN(C)C(=O)CN1C(=O)NC2(CCOCC2)C1=O | inconclusive: 6.31 µM [cytotoxic, single point] | 
CCOc1cc(C(=O)Nc2ccc(-c3nc4cc(Cl)ccc4o3)cc2)cc(OCC)c1OCC | inconclusive: 3.16 µM [rising, full curve, poor fit] | 

Compound | Potency | activity change, negative = cytotoxicity
Cc1nn2c(c1-c1ccccc1-c1ccccc1)N(CCC(C)C)CCC2 | inconclusive: 3.16 µM [cytotoxic, full curve, poor fit] | 
C[S+](=O)([O-])N1CCN([S+](=O)([O-])c2ccc(Cl)nc2)C(=O)C1 | inactive | 
C[S+](=O)([O-])c1cccc(NC(=O)Cc2c[nH]c3ncc(-c4ccccc4)cc23)c1 | inactive | 
c1ccc(-n2nnnc2N2CCCC(c3nccn3Cc3ccccn3)C2)cc1 (stereo not drawn) | inconclusive: 14.1 µM [cytotoxic, partial curve, poor fit] | 
CCOc1ccccc1CN1C(=O)c2ccccc2C1C(=O)NC1CCCCCC1 (stereo not drawn) | inconclusive: 25.1 µM [cytotoxic, single point] | 
COc1ccc(C(=O)N2CCC(n3cc(-c4nc(C(C)C)no4)nn3)C2)cc1OC (stereo not drawn) | inactive | 
COc1ccc(C(=O)N2CC(=O)Nc3ccc(C)cc3C2c2ccc(F)cc2)c(OC)c1 (stereo not drawn) | inconclusive: 25.1 µM [cytotoxic, partial curve, poor fit] | 
CC(NC(=O)C1CCCO1)C(=O)N1CCN(c2ccccn2)CC1 (stereo not drawn) | inactive | 
COc1ccc(CNC(=O)c2ccc3c(c2)N(Cc2ccccc2)C(=O)c2ccccc2S3=O)cc1 (stereo not drawn) | inactive | 
CCOc1ccc(NC(=O)N(Cc2ccc(CC)cc2)Cc2cn[nH]c2-c2ccc(OC)cc2)cc1 | inconclusive: 39.8 µM [cytotoxic, single point] | 
CN1C[C@@H](NC(=O)Nc2cccc(C#N)c2)C[C@H]1c1nc(-c2ccc(Cl)cc2)no1 | inconclusive: 28.2 µM [cytotoxic, partial curve, poor fit] | 
O[C@H]1[C@H](NCc2ccc(F)cc2)[C@H]2CO[C@H](O2)[C@@H]1N1CCC(Cc2ccccc2)CC1 |  | inconclusive: -24.5% [at 87.6 µM]
O=C(NCc1cccc(F)c1)C1CCc2sc(C(=O)N3CCCCC3)cc2C1 (stereo not drawn) |  | inconclusive: -26.5%
O=C(Nc1cccnc1)N1CCC(Cc2cccc(Oc3ccc(C(F)(F)F)cn3)c2)CC1 | inconclusive: 3.04 µM [cytotoxic, full curve] | 
O=C(Nc1ccc([N+](=O)[O-])cc1Cl)c1cc(Cl)ccc1O | inconclusive: 6.81 µM [cytotoxic, partial curve] and inconclusive: 2.82 µM [cytotoxic, partial curve, poor fit] | 
COc1ccc(C(=O)N2CC(c3nnc(-c4ccncc4)o3)C3(CCOCC3)C2)cc1F (stereo not drawn) | inconclusive: 8.91 µM [cytotoxic, single point] | 
CCN(CC)Cc1cc(-c2nc(C3CCOC3)no2)c(-c2ccccc2)o1 (stereo not drawn) | inactive | 
COc1ccc(C2C=C(c3ccccc3)Nc3nc(NS(=O)(=O)c4ccc(C)cc4)nn32)cc1 (stereo not drawn) | inconclusive: 35.5 µM [rising, partial curve] | 
COc1cccc(N2C(=O)NC(=NC3CCCCC3)C23CCN(Cc2ccsc2)C3)c1 (stereo not drawn) | inconclusive: 3.55 µM [cytotoxic, partial curve, poor fit] | 
CCOC(=O)C1(Cc2ccccc2Cl)CCN(C(=O)c2ccsc2)CC1 | inactive | 
COc1ccc(-c2nc3cnc(N4CCN(C)CC4)nc3n(Cc3ccc(F)cc3)c2=O)cc1 | inconclusive: 11.2 µM [rising, partial curve] | 
